Publication PMC4336329 (PLoS ONE, 2015)
Hit rate of the full screen: of about 310,000 compounds, about 14,000 (4.5%) showed an effect of 50% or more. The effect is printed as a negative number. The list shows a part of the results.

target: human ether-à-go-go-related gene (hERG) potassium channel (human, UniProt Q12809); assay: primary screen, population patch clamp on CHO cells stably expressing hERG
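Note: peak tail current of the secondary pulse compared with the same well before compound.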

Chain of human ether-à-go-go-related gene (hERG) potassium channel (Q12809 whole entry, looked up): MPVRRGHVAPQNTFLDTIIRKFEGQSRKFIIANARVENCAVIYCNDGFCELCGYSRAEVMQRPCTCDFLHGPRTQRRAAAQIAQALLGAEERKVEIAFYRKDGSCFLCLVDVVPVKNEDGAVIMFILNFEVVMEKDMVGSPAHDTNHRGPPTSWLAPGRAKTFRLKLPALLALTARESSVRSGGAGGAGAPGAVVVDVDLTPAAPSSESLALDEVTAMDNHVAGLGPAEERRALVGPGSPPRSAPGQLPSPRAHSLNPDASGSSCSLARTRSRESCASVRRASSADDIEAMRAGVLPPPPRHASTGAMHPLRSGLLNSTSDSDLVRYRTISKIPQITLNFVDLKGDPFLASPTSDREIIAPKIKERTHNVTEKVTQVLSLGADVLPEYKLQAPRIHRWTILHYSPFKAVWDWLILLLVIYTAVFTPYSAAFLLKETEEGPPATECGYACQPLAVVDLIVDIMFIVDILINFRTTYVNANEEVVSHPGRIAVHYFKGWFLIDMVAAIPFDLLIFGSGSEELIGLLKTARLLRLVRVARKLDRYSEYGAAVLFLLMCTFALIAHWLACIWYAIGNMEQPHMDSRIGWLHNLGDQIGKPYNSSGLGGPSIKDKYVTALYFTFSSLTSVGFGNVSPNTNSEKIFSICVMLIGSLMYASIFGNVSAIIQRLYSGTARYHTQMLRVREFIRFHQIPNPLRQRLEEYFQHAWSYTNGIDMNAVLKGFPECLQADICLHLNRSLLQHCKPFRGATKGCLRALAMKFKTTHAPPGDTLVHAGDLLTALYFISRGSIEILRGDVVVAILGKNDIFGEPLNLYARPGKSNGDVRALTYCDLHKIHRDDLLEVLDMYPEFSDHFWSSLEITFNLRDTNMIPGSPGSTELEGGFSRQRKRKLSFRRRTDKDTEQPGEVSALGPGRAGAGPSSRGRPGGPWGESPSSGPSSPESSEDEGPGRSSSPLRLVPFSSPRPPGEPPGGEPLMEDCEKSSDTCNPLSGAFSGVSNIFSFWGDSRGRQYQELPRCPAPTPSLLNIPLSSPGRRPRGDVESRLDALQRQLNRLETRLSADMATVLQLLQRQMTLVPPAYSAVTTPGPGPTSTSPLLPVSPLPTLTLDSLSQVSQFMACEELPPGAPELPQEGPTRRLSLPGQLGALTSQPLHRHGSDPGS

Point of comparison: `Cc1nnc(SCC(=O)NCc2ccccc2)s1`, “hERG current change (%, negative = inhibition) at 10uM” value 12.6%. Against it:
- S=C(NCCC1=CCCCC1)NCc1ccco1 — lower, 11.6%
- CCOC(=O)N1CCN(C(=O)c2ccc(N3CCCC3=O)cc2)CC1 — higher, 14.8%
- CCN(CC)CC(=O)Nc1sc2c(c1C(=O)c1ccccc1OC)CCC2 — higher, 17.1%
- COc1ccc(-c2ccnc3c(C#N)cnn23)cc1 — lower, 6.06%
- O=C(CSc1nnc(COc2ccccc2)n1-c1ccccc1)c1ccccc1 — lower, 11.2%
- CSc1ccc(Cl)c(C(=O)Nc2ccc(C)cn2)c1 — lower, 12.1%
- CCCC/C(=N\O)c1c[nH]c2ccccc12 — lower, -4.11%
- CCC(=O)Nc1ccc(-c2csc(C)n2)cc1 — lower, -4.34%
- Cc1cccc(-n2c(O)c(C=Nc3ccccc3O)c3ccccc3c2=O)n1 — lower, 6.45%
- CCCCNCCCOc1cccc(Cl)c1Cl — lower, -23.6%
- CN(C(=O)C1CCCO1)C1CCS(=O)(=O)C1 (centres unmarked) — lower, -0.467%
- Cc1oc(-c2ccccc2)nc1CS(=O)CC(=O)NC1CCCCCC1 (centres unmarked) — lower, -11.5%
- CCN(CC)CCN(C(=O)c1ccc2c(c1)CCCC2)c1nc2ccc(C)cc2s1.Cl — lower, 10.1%
- Cc1nn(CCOc2ccccc2)c(=O)n1-c1ccc(F)cc1 — lower, -2.37%
- CC(=O)c1nnn(-c2ccc(F)cc2F)c1C — lower, 11.8%
- CCCCN(C)CCNC(=O)Cn1ncc2c(=O)oc3ccc(C)cc3c21 — lower, -27.2%
- Clc1ccc(SCc2cn3ccsc3n2)cc1 — lower, -12.3%
- CC(C)(C)Oc1ccccc1Nc1nc(NCCO)nc(N2CCCC2)n1 — lower, -6.92%
- CCN(c1ccccc1)S(=O)(=O)c1ccc(Cl)c(NC(=O)CSc2n[nH]c(N)n2)c1 — lower, -15.3%
- CCN1/C(=C\C(=S)Nc2ccccc2)Sc2ccccc21 — lower, 10.3%
- Cc1ccc(OCC(=O)Nc2ccc3c(c2)C(=O)N(CCC(=O)O)C3=O)cc1 — lower, -16.5%
- O=C(c1ccncc1)N1CCN(S(=O)(=O)c2ccccc2Br)CC1 — lower, 4.86%
- CN(C)S(=O)(=O)c1ccc(S(=O)(=O)N2CCCC2)cc1 — lower, 8.88%
- Cc1ccc(NC2=C(Cl)C(=O)OC2OC(=O)c2ccco2)cc1C (centres unmarked) — lower, -46.5%
- CCOC(=O)c1cc2sc(C)cc2n1CC(=O)N1CCOCC1 — lower, 7.06%
- NC(=O)C1CCN(C(=O)C2c3ccccc3C(=O)N3CCc4ccccc4C23)CC1 (centres unmarked) — lower, -13.2%
- CCN1C(=O)[C@H]2[C@@H](c3ccc(-c4ccc5c(c4)OCO5)c(OC)c3)N[C@@](Cc3ccccc3)(C(=O)OC)[C@H]2C1=O.O=C(O)C(F)(F)F — lower, 11%
- CCOC(=O)N1CC=C2C(C#N)=C(N)C(C#N)(C#N)[C@H](c3ccc(OC(C)C)c(OCC)c3)[C@H]2C1 — lower, -4.36%
- CCOC(=O)C1(Cc2ccc(Cl)cc2)CCN(Cc2ccon2)CC1 — lower, -49.5%
- CC(C)(C)C(=O)Nc1cccc(-c2cc(-c3c(Cl)cccc3Cl)no2)c1 — lower, -4.59%
- Cc1cccn2c(CNCC3OCCc4ccccc43)c(C(=O)N3CCCCC3)nc12 (centres unmarked) — lower, -19.5%
- Cc1ccsc1/C=N/NC(=O)CO — higher, 15.3%
- CCCn1c(=O)c(C(=O)NNC(=O)c2cccc([N+](=O)[O-])c2)c(O)c2ccccc21 — lower, -21.7%
- O=C(COc1ccc2ccc(=O)oc2c1)NCC(O)c1ccccc1 (centres unmarked) — lower, 5.75%
- CC(=O)N1CCc2c(sc(NC(=O)Cc3ccc(C)cc3C)c2C#N)C1 — lower, 9.76%
- O=c1[nH]c(C2CCCN(S(=O)(=O)c3ccc(F)cc3)C2)nc2c1nnn2Cc1ccc(F)cc1 (centres unmarked) — lower, -25.8%
- OCCC1CN(CCCc2ccccc2)CCN1Cc1ccccc1 (centres unmarked) — lower, -64%
- CN(CC(=O)O/N=C(\N)c1ccc([N+](=O)[O-])cc1)S(=O)(=O)c1ccccc1 — lower, -17.3%
- O=P(OCC(F)(F)C(F)F)(N1CCCCC1)N1CCCCC1 — lower, 0.612%
- COc1ccc(/C=C(\NC(=O)c2ccc(C)cc2)C(=O)NCCCN2CCOCC2)cc1OC — higher, 19.9%
- CCOC(=O)c1sc2nc(C)nc(NCc3cccnc3)c2c1C — lower, -9.36%
- O=C1CC(NCc2ccc3c(c2)OCO3)C(=O)N1Cc1ccc2c(c1)OCO2 (centres unmarked) — lower, -4.06%
- CCOC(=O)COc1ccc(/C=C/[N+](=O)[O-])c(OCC(=O)OCC)c1 — lower, 2.96%
- C/C(=N\N1CCN(C)CC1)c1c(O)[nH]c(=O)[nH]c1=O — lower, 5.21%
- COc1ccccc1CNc1cc(C)ccn1 — lower, 7.76%
- c1ccc(-n2nc3ccccc3n2)cc1 — lower, 0.848%
- COCCN(Cc1ccccc1)C(=O)Cc1ccc(S(=O)(=O)N2CCOCC2)s1 — lower, -22.5%
- CCOc1ccc(NC(=O)CSC2=C(C#N)C(c3ccc4c(c3)OCO4)CC(=O)N2)cc1 (centres unmarked) — lower, -5.62%
- Cc1sc2nc(C3CC3)nc(SCC(=O)NCc3ccco3)c2c1C — lower, 5.51%
- CO[C@@H]1[C@@H](OC(N)=O)[C@@H](O)C(Oc2ccc3c(O)c(NC(=O)c4ccc([O-])c(CC=C(C)C)c4)c(=O)oc3c2C)OC1(C)C.[Na+] (some centres unmarked) — lower, -3.04%
- O=C1C2CCCN2C(c2cccc(Cl)c2)N1c1ccccn1 (centres unmarked) — lower, 1.1%
- COc1cccc(CNc2ccc(S(=O)(=O)Nc3nccs3)cc2)c1O — lower, 1.54%
- NC(N)=NS(=O)(=O)c1ccc(NC(=S)NC(=O)c2sc3ccccc3c2Cl)cc1 — higher, 21.1%
- COc1cc(NC(=O)c2sc3nc(C)nc(N4CCOCC4)c3c2C)cc(OC)c1OC — higher, 15.9%
- CCCOC(=O)c1ccc(NC(=O)CN(C)Cc2cccs2)cc1 — lower, 4.26%
